Our source for the binding values is article PMC7835222.

The chains behind the UniProt entries cited, without tags or fusion partners. Where a name states a change or a piece, a line headed by the entry shows the natural chain unless it says otherwise. Residues count along the entry.
UniProt O60678: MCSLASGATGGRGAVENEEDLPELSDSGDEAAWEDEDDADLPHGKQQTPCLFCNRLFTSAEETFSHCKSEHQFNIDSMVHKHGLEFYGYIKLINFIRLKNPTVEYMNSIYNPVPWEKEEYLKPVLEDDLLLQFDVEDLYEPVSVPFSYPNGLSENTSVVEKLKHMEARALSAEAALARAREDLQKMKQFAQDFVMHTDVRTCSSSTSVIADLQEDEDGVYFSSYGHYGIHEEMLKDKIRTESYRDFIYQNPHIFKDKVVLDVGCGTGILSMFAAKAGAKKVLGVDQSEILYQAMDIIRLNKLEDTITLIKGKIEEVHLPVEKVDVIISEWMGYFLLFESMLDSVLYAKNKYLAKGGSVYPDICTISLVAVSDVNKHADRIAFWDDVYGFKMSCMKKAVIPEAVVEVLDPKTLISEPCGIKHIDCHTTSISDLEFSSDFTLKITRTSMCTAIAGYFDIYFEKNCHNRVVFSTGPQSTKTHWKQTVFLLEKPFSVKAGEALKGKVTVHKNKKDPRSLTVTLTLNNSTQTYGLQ
UniProt O14744: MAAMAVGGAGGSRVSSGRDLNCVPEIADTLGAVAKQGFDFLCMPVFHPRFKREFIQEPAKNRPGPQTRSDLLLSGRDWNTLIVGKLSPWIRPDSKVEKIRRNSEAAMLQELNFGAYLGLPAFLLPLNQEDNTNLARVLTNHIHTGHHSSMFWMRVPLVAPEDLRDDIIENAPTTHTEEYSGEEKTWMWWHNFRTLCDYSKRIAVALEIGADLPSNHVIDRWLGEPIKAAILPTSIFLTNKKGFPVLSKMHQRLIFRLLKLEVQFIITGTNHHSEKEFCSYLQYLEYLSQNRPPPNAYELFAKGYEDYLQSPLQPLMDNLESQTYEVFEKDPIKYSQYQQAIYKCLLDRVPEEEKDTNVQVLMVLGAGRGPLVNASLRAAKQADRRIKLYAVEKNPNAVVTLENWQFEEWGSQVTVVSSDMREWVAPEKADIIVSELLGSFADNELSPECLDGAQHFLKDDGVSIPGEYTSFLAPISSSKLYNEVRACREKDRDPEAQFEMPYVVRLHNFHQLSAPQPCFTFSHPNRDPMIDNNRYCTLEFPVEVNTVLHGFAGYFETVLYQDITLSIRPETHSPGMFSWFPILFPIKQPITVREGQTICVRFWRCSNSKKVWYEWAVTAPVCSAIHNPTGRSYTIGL
UniProt P05091, residues 18-517: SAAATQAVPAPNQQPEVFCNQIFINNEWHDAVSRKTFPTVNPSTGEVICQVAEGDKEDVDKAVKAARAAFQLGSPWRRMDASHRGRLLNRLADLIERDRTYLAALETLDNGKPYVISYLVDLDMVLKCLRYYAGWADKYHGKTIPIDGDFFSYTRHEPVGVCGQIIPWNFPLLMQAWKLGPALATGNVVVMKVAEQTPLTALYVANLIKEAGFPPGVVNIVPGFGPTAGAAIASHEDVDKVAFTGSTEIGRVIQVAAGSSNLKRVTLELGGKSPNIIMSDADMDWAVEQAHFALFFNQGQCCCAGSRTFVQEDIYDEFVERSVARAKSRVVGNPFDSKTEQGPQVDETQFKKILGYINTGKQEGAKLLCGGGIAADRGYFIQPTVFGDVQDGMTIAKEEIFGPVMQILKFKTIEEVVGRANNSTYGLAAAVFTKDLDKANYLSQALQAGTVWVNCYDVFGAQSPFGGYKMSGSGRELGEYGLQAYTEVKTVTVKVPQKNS
UniProt Q96LA8: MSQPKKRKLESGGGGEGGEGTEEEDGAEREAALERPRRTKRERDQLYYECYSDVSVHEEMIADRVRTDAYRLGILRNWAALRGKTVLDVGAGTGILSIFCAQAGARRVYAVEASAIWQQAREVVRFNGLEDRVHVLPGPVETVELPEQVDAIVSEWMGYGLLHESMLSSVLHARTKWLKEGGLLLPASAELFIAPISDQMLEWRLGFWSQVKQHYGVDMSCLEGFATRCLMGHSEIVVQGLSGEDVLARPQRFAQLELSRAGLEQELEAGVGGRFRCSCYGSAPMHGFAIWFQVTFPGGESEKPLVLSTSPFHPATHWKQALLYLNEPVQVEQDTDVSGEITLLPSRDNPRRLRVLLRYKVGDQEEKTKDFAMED

Assay [1] addresses T1, GST-tagged full-length ALDH1A1 (pGEX-AL-FL) (human) (UniProt P00352).
T1 sequence: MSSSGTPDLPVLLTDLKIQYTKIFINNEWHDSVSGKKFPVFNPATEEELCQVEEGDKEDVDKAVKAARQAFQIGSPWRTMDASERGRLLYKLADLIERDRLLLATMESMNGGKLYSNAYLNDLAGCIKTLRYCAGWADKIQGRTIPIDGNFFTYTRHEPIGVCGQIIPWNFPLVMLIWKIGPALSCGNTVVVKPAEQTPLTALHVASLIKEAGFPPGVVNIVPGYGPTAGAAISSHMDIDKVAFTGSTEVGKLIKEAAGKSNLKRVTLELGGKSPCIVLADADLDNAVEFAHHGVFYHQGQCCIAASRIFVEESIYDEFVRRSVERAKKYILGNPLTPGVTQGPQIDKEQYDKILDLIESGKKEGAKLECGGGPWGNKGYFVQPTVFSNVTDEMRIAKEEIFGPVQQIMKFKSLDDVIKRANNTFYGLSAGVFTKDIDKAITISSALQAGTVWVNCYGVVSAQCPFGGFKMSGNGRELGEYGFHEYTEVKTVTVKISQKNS
Briefly: pull-down; 15 µg GST-tagged ALDH1A1 (full length or truncated) on Glutathione Sepharose, lysates of HEK293 cells overexpressing GFP-tagged PRMT proteins; 4 °C, 10 h; blot with GFP antibody; only the target purified.

In assay [2] the target is GST-tagged PRMT3 full-length protein (pGEX-PR-FL) (human) (UniProt O60678). The experiment in a line: pull-down; 15 µg GST-tagged PRMT3 on Glutathione Sepharose, lysates of HEK293 cells overexpressing HA-tagged ALDH members; 4 °C, 10 h; blot with HA antibody; only the target purified.
The target of assay [3] is T2, GFP-tagged ALDH1A1 (pEGFP-AL-FL) (human) (UniProt P00352).
T2 sequence: T1 sequence
The experiment in a line: co-IP; HEK293 cells co-transfected; GFP-tagged protein precipitated with GFP Trap A beads, 4 °C, 10 h; 10 mM Tris pH 7.5, 150 mM NaCl, 0.5 mM EDTA, 0.1% NP-40; blot with Myc (forward) or HA (reverse) antibody.

Results are given in words; binding and its absence hold for the method and conditions named. Binding seen in cells or lysates may run through a third protein. Some binding calls cover weakened binding; strength is not graded here. For some assays here: Tags and fused reporters may be left off the sequences shown.

For “GFP-PRMT5 (pEGFP-PRMT5) (from UniProt O14744 1-637) (enzyme)”, the binding result in assay [1] is on record as “no binding”.

As to “HA-ALDH2 (pCDNA4-HA-ALDH2) (from UniProt P05091 18-517) (enzyme)”, the binding entry in assay [2] is on record as “no binding”.

For the substance “GFP-PRMT6 (pEGFP-PRMT6) (from UniProt Q96LA8 1-375) (enzyme)”, the binding result in assay [1] was “binds weakly”.

Take “GFP-tagged PRMT3 full-length protein (pEGFP-PR-FL) (from UniProt O60678-1 1-531) (enzyme)”: the binding result in assay [1] is reported as “binds”.

For the substance “HA-tagged PRMT3 (pCDNA4-HA-PR-FL) (from UniProt O60678-1 1-531) (enzyme)”, the binding result in assay [3] was “binds”.
